Article PMC6919601, “Identification of Plasmodium dipeptidyl aminopeptidase allosteric inhibitors by high throughput screening” (PLoS ONE, 2019)
The whole screen tested about 110,000 compounds, of which about 230 (0.21%) showed an effect of 50% or more. This is one part of the list.

Each compound was assayed against DPAP1 (Plasmodium falciparum, UniProt Q8IIJ9) (assay: primary screen, percent inhibition; read by cleavage of a fluorogenic dipeptide substrate; higher = more effect of the substance).
Sequence of DPAP1 (Q8IIJ9 whole entry, looked up): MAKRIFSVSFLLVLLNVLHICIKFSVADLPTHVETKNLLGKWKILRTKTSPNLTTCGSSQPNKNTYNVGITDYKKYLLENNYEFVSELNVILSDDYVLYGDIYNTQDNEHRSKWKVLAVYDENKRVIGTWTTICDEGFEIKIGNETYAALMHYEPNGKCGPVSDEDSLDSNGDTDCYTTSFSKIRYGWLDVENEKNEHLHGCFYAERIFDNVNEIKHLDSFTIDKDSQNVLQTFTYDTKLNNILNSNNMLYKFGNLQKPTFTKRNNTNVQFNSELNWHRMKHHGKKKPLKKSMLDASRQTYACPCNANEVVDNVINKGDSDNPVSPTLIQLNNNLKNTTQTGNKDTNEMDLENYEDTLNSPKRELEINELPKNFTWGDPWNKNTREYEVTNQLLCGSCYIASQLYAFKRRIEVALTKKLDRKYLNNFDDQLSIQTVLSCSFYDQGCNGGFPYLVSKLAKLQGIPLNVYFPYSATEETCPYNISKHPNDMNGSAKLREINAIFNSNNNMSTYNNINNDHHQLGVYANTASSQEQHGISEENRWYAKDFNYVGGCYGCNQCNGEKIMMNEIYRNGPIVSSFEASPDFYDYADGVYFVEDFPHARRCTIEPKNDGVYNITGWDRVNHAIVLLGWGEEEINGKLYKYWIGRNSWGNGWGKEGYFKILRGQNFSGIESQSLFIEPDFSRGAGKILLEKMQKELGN
Parameters: species or system P. falciparum D10 trophozoite lysates; single well
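Further: 30 min substrate incubation versus DMSO and 10 µM JCP410 controls.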

Compound	% Inhibition @ 10 uM
CCOCCCNC(=O)C1CCN(C(=O)N(C)C)CC1	0.387%
COC(=O)C1=C(C)NC(=O)/C1=C/c1ccc(CNS(=O)(=O)c2ccc(Cl)cc2)o1	10.9%
Cc1ccccc1NC(=O)c1cc2c(=O)n3cccc(C)c3nc2n1C	2.03%
CNS(=O)(=O)c1cnccc1N1CCN(c2ccc(S(N)(=O)=O)cc2)CC1	-3.33%
CCOC(=O)c1cc2c(=O)n3ccccc3nc2n(C(C)C)/c1=N\C(=O)c1cccc(OC)c1OC	-5.57%
O=c1oc2c(Cl)cc(Cl)cc2cc1-c1nc(-c2cccs2)cs1	4.12%
CCOC(=O)c1c(NC(=O)CC)sc2c1CCC(C(C)(C)C)C2 (stereo not shown)	0.343%
O=[N+]([O-])c1ccccc1CN1CCC(Cc2ccccc2)CC1	1.48%
COc1ccc2c(c1)CCc1sc(NC(=O)c3ccc(OC)c(Br)c3)nc1-2	2.73%
C=CCN1CCCC1CNC(=O)c1cc(S(N)(=O)=O)cc(OC)c1OC (stereo not shown)	-1.22%
CC1(C)Cc2nc3sc4c(O)ncnc4c3cc2CS1	-2.99%
CC1CN(CC(O)COCCC23CC4CC(CC(C4)C2)C3)CC(C)O1 (stereo not shown)	6.41%
O=C(NC1=NC(=O)C(F)(C(F)(F)F)S1)NC1CCCCC1 (stereo not shown)	-5.4%
CCCCN1C(=O)C(NC(=O)c2cccnc2)(C(F)(F)F)C2=C1CC(C)(C)CC2=O (stereo not shown)	-1.52%
COCCCNC(=O)C1CCN(c2nnc(C)c3c(C)n(-c4ccccc4)nc23)CC1	-4.57%
S=C1NCN(Cc2ccccc2)CN1CCc1ccccc1	-3.74%
COc1cc(C2NC(=O)NC(C)=C2C(=O)Nc2ccc(Cl)cc2)cc(OC)c1OC (stereo not shown)	-0.564%
CC1CCC2C(=O)N(c3cc(Cl)ccc3O)C(=O)C2C1 (stereo not shown)	-18.8%
O=C(CNc1ncnc2ccccc12)NCCO	-8.69%
CC(NCc1nc2ccccc2n1C)C12CC3CC(CC(C3)C1)C2 (stereo not shown)	2%
CCCNC(=O)c1ccc(C(=O)NCCC)cc1	3.25%
Cc1ccccc1OCCCOc1ccc(/C=C2/C(=N)N3C(=NC2=O)SN=C3S(C)(=O)=O)cc1	-5.27%
COc1ccc(C(=O)c2sc3nc4c(c(-c5cccnc5)c3c2N)CCC4)cc1	21.7%
COc1cccc(C2CC(c3cccc(Br)c3)Nc3nnnn32)c1OC (stereo not shown)	1.73%
CN(C)CCN(Cc1ccccc1)C(=O)C(C(=O)c1ccc(Br)cc1)n1ccccc1=O (stereo not shown)	2.31%

Compound	% Inhibition @ 10 uM
COc1cc([N+](=O)[O-])cc2c1OC1(C=C2)N(C)c2ccccc2C1(C)C (stereo not shown)	5.85%
O=C(NCc1ccccn1)c1ccc2c(Cl)c3c(nc2c1)CCCC3	-4.94%
CCN(CC)c1ccc2cc(-c3nc4ccccc4n3C)c(=O)oc2c1	-4%
COCCNC(=O)c1cnn2c(C(F)F)cc(-c3ccccc3)nc12	2.46%
COc1ccc(/C=C/C=N/n2c(SC)nnc2-c2ccccc2)cc1	2.56%
CC1CCCC(NC(=O)C2C3C=CC(C3)C2C(=O)O)C1C (stereo not shown)	-2.24%
C=CCOc1ccc(C2C3=C(CC(C)(C)CC3=O)N(C)C3=C2C(=O)CC(C)(C)C3)cc1OC	-10.5%
c1cc2n(c1)CCNC2C1CCCCC1 (stereo not shown)	-0.0953%
Cc1cc(C)c(OCC(=O)Nc2ccc(F)cc2)c(Br)c1	-1.28%
O=C(Nc1nnc(/C=C/c2ccccc2)s1)c1ccc(Cl)c(Cl)c1	5.94%
Cc1onc2c1C(=O)CC(c1ccccc1)C2 (stereo not shown)	-2.63%
O=C1c2cccc([N+](=O)[O-])c2C(=O)N1c1ccc(Cl)c(Cl)c1	42.2%
Cc1ccn2c(NC(=O)CCc3ccccc3)c(-c3cccs3)nc2c1	3.49%
COc1cccc(CN(C(=O)c2oc3cc(C)c(Cl)cc3c2C)C2CCS(=O)(=O)C2)c1 (stereo not shown)	-7.09%
O=C(c1ccc2nc(N3CCCCC3)sc2c1)N1CCN(C2CCCCC2)CC1	4.22%
Cc1ccnc(NC(=O)c2ccccc2Cl)c1	-1.63%
CN(C(=O)Nc1cccc(C(=O)NC(CSCc2ccccc2)C(=O)NCC#N)c1)[C@H]1CCN(Cc2ccccc2)C1 (stereo partly shown)	-0.214%
COc1cc(OC)cc(C(=O)Nc2nc(-c3nnn(-c4ccc(C(C)C)cc4)c3C)ns2)c1	-5.86%
O=C(c1cc2nc(-c3cccs3)cc(C(F)(F)Cl)n2n1)N1CCOCC1	-7.81%
COc1ccc(OC)c(NC(=O)Cc2ccccc2F)c1	-4.66%
CC(C)CC(NC(=O)c1ccc(-c2csc(N(C)C)n2)cc1)C(=O)NCC#N (stereo not shown)	-3.97%
COCCCNC(=O)CCc1c(C)nc2c(c(C)nn2C(C)(C)C)c1C	-4.24%
COc1ccc(OCC(=O)Nc2ccc(C)c(Cl)c2)cc1	-8.33%
CC1(c2ccccc2)OC(=O)C(C#N)C12CCCCC2 (stereo not shown)	2.58%
CC(O)CNC(=O)COc1ccccc1 (stereo not shown)	2.25%

Compound	% Inhibition @ 10 uM
N#Cc1c(Nc2ccc(F)cc2)sc(C(=O)c2ccccc2)c1N	-0.661%
CC(=O)c1cccc(-c2ccc(/C=C3/C(=O)N(C)C(=O)C(C#N)=C3C)o2)c1	-1.25%
CC1=CC(C)(C)N(C(=O)Cc2ccccc2)c2ccccc21	4.6%
O=c1c(Cl)c(NCCc2ccccc2)cnn1-c1nc2ccccc2o1	-1.59%
COc1ccc(C2C(C(C)=O)=C(O)C(=O)N2c2ccc(Br)cc2)cc1 (stereo not shown)	-1.98%
COC(=O)c1cc2ccsc2[nH]1	1.72%
Cc1cc(O)c(C2=NCCSC(c3ccccc3[N+](=O)[O-])C2)c(=O)o1 (stereo not shown)	-8.3%
COc1ccccc1N1CCN(Cc2cccc(C)c2)CC1	-0.127%
CCOC(=O)N1CCC(NC(=O)Cn2cccc2C(=O)c2ccccc2)CC1	4.33%
Cc1cc(C)c2oc(C(=O)Nc3nc4ccc(F)cc4s3)cc(=O)c2c1	1.9%
COc1ccccc1N1C(=O)C2CCC(C)CC2C1=O (stereo not shown)	-14.3%
COc1ccc(NC(=O)c2ccc(Cc3ccc(C)cc3)o2)cc1	-0.641%
COc1cc(C2C3=C(O)CCCC3=NC(C)=C2C(=O)Nc2cc(C)ccn2)cc(OC)c1OC (stereo not shown)	2.36%
CCC(C)NC(=O)CCNC(=O)Cn1ccc2ccccc2c1=O (stereo not shown)	5.4%
CCOc1ccccc1-n1c(SCC(=O)c2ccc(Cl)cc2)nc2nncc-2c1O	-5.03%
Cc1sc(NC(=O)c2ccccc2)c(C(=O)NC(C)C)c1C	-1.29%
O=C(/C=C(\O)c1ccccc1)C(F)(F)C(F)(F)c1cc(-c2ccccc2)[nH]n1	0.937%
Cc1cccn2c(=O)c3cc(C(N)=S)c(=N)n(CCN4CCOCC4)c3nc12	4.78%
O=C1NC2(CCCCCC2)N=C1c1ccc(F)cc1	-3.87%
CCOC(=O)c1nnn(-c2cccc(C)c2C)c1C(=O)OCC	-7.21%
CC1(C)Cc2c(sc(NC(=O)c3ccco3)c2C#N)CO1	0.983%
O=C(CCNC(=O)Cn1ccc2ccccc2c1=O)NCc1ccc(F)cc1Cl	4.33%
COc1ccc(CNCc2c(C(=O)O)[nH]c3cc(C)ccc23)cc1	-6.3%
Cc1cccc(N(CC(=O)O)S(=O)(=O)c2ccc(Cl)cc2)c1	7.18%
CCCCC(C(N)=O)N1C(=O)C2C3C=CC(C3)C2C1=O (stereo not shown)	2.08%

Compound	% Inhibition @ 10 uM
CCOc1ccc(CNC2=NS(=O)(=O)C(c3ccc(C)cc3)=C2C)cc1	0.623%
COc1ccc(NC2=C(Cl)C(=O)N(c3ccc(OC)cc3)C2=O)cc1	0.385%
C=CCn1c(SCC(=O)NCc2ccco2)nnc1-c1ccc2[nH]c(C)c(C)c2c1	-3.21%
Cc1cc(Cl)ccc1OCC(=O)N1CCN(C/C=C/c2ccccc2)CC1	-6.08%
O=S(=O)(/C=C/c1ccccc1)N1C=Cc2ccccc2C1c1c[nH]c2ccccc12 (stereo not shown)	4.35%
CC(C)C[C@H](NC(=O)c1cccc2cccnc12)C(=O)NCC#N	-8.36%
O=C(Nc1nccs1)C(c1ccccc1)N1Cc2ccccc2C1=O (stereo not shown)	1.66%
COCCNC(=O)/C(C#N)=C/c1c(Oc2ccccc2Cl)nc2c(C)cccn2c1=O	-3.46%
O=C(NCC1CCCO1)c1ccc(CNS(=O)(=O)c2cccc(Cl)c2)cc1 (stereo not shown)	-1.61%
CCOC(=O)C1=C(CN2CCOCC2)NC(=O)NC1c1ccc2c(c1)OCO2 (stereo not shown)	0.9%
Cc1nc2ccn(Cc3cccs3)c(=O)c2cc1C(=O)N1CCOCC1	3.16%
Cc1cc(C)nc(NS(=O)(=O)c2ccc(NC(=O)c3ccc([N+](=O)[O-])cc3)cc2)n1	4.42%
COc1ccccc1N1CCN(C(=O)c2cc(Br)ccc2Cl)CC1	20.6%
O=C(CC1c2ccccc2Oc2ccccc21)NCCOc1ccccc1Cl	28.3%
c1ccc(-c2[nH]c3ccccc3c2-c2nc3ccccc3[nH]2)cc1	5.66%
O=C(NCCCN1CCOCC1)c1ccc2nc3[nH]c4ccccc4c3nc2c1	-5.92%
COc1ccc(C(=O)N2CCN(CCN3C(=O)c4ccccc4C3=O)CC2)cc1OC	-1.24%
CC1=C(C(=O)NC2CCN(Cc3ccccc3)CC2)C2(CCCCC2)OC1=O	1.55%
OCCNCc1ccc(OCc2ccccc2)cc1	1.83%
Cc1ccc(-c2noc(CN(C(=O)N3CCOCC3)C(C)C)n2)cc1	0.486%
Cc1ccc(CNC(=O)C2CCC(=O)N2C(C)C)cc1 (stereo not shown)	6.74%
CCOc1ccc(/C=C/c2nc(-c3ccc(Cl)cc3)no2)cc1OCC	-0.0735%
